Each structure is given as a SMILES string.

This test has as its system SARS-CoV-2. Type of test: cell-based. Particulars: Calu3, single cell and protein level.

As for `COC1=C(OC)C(=O)C(CCCCCCCCCC[P+](c2ccccc2)(c2ccccc2)c2ccccc2)=C(C)C1=O.CS(=O)(=O)[O-]` [Mito-MES, 10-(4,5-dimethoxy-2-methyl-3,6-dioxo-1,4-cyclohexadienyl) decyl triphenylphosphonium methanesulfonate], the “percent of SARS-CoV-2 infected cells (flow cytometry)” value was “inhibits or reduces the percent of SARS-CoV-2 infected Calu3 cells”.

For the origin of these results see patent publication US20250090557A1 (priority 2020, published 2025).
